Laboratory results: the RNAGym collection of RNA variant scans (doi:10.1093/nar/gkz1192)
The source gives no read counts; variants with many changes may rest on few reads.

B1: CPEB3 Ribozyme (parent)
chain: UAACAGGGGGCCACAGCAGAAGCGUUCACGUCGCAGCCCCUGUCAGAUUCUGGUGAAUCUGCGAAUUCUGCUGUAUAUCUC

Variants of: B1
Assay: self-cleavage, relative activity (ratio to wild type); higher = more cleavage; in vitro, sequencing
In short: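 For each CPEB3 ribozyme variant, relative activity is its cleaved/total read fraction divided by the unmutated ribozyme's. Barcoded error-prone PCR libraries were transcribed by T7 RNA polymerase (5 hours, 37°C) and held in DNase I for 15 min before an EDTA stop, with cleavage occurring throughout. Template-switching reverse transcription and Illumina sequencing were used to read the RNAs. A 5-read minimum applied, and results are the mean of three batches.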

Variant	self-cleavage
A3U C23U A65G A75U U80A	0.59
A3U C27U A35U U60C U69A U74C	0.07
A3U C27U C32U U60A	0.15
A3U C34A A45G	0.47
A3U C37U A45C	0.45
A3U C38A A56G U58A U76C	0.1
A3U C38U U60C A65G U69C A75G	0.19
A3U C38U U69C A75G	0.42
A3U C40U A77G	0.66
A3U C40U U72C	0.87
A3U G6A C14A A18U U76C	0.13
A3U G6A G10A A20U C44U U69C U72A	0.07
A3U G6A U31C A47C	0.27
A3U G6U C23U A64G	0.1
A3U G7A A15G	0.09
A3U G7A A45G A57G U58C	0.23
A3U G7A C50A	0.48
A3U G7A G36U A45G A47G U60A	0.08
A3U G7C U43A A65G U72C	0.08
A3U G7U A20U G22A G36A	0.06
A3U G7U G19A C40G U51G	0.06
A3U G8A A18G G19U U25C U31C U74C	0.06
A3U G8A A28G	0.31
A3U G8A G10A U25C U58C U60A U67A	0.08

Variant	self-cleavage
A3U G8A U26C U60A U80C	0.38
A3U G8C C14U A20G U76C A77G	0.6
A3U G8U A13G A18G A64G	0.07
A3U G8U C23G A28U	0.06
A3U G9A A35C A45C U60C U66A U74A	0.05
A3U G9A U26A U54G U80A	0.08
A3U G9U A15G U48C A56G U72C	0.23
A3U G9U C44U A77G	0.28
A3U G10A A21G A45G U69C A77U	0.02
A3U G10A A45G U58C U60A A64G U69C	0.05
A3U G10A G19C U25C U69G A77G	0.12
A3U G10C A20G A28G U41A G70A	0.09
A3U G16U A20G G46C	0.28
A3U G16U G46C	0.07
A3U G22U A47G U67C U69C	0.19
A3U G24U G36U U51C G55A A56U U66C	0.24
A3U G30A C59U A64U	0.12
A3U G36U A56G A64G	0.1
A3U G36U U49C A56G	0.17
A3U G46A G63A A65G	0.14
A3U G46A U69G	0.21
A3U U25C A47U U58A A75G	0.29
A3U U25C A56U U58A U60A G73U	0.06
A3U U25C A57C	0.12

Variant	self-cleavage
A3U U25C C40U U43C	0.16
A3U U25C G30A U43A A64U	0.15
A3U U25C U26A A35G A47G A56G	0.27
A3U U25C U26C U66A U78A	0.08
A3U U25C U26C U78C	0.11
A3U U25C U41A A45C U78C	0.36
A3U U25C U43A U54A U67A A77C	0.13
A3U U25C U54C U60C U66A U69A	0.4
A3U U25C U54C U78A	0.54
A3U U25C U66C U78C	0.09
A3U U25C U67C U78C	0.24
A3U U25C U72C	0.28
A3U U26A A35G A75G	1.26
A3U U26A A47G U49C	0.43
A3U U26A G33A A64G U67C U69G U78G	0.09
A3U U26A G33U U58A	0.14
A3U U26A U43C G55A U66C	0.1
A3U U26C A28U	0.5
A3U U26C A57G U67C	0.17
A3U U26C U51C U60A U80A	0.33
A3U U26C U60A	0.28
A3U U31C C38U	0.9
A3U U31C G52U A56U	0.7
A3U U31C U43C U60A U72C U76C	0.34

Variant	self-cleavage
A3U U31C U76C	1.09
A3U U31C U78C	0.99
A3U U31G U43C	0.52
A3U U41A A45C U72A	0.03
A3U U41A A65U U67C U78C	0.13
A3U U41A G61C	0.35
A3U U41A U49C U69C	0.22
A3U U41C A45C A57U A75U	0.17
A3U U41C U58C U66C A77U	0.32
A3U U41C U60C A64G	0.2
A3U U41G A64G U66C A77G	0.13
A3U U43A A64G	0.76
A3U U43C G63A U76C	0.6
A3U U43C U51A U66C	0.4
A3U U43C U51C	0.88
A3U U43C U74C A77G U80A	0.92
A3U U48C A57G U72C	1.25
A3U U48C G52A C71U U72A	0.62
A3U U49A U51A U58C A75G	0.12
A3U U49C A56G C68A	0.38
A3U U49C A64U U80C	0.34
A3U U49C U66C U72G U78C	0.15
A3U U49C U72A U80C	0.22
A3U U54A A56U	0.59

Variant	self-cleavage
A3U U54A A65G	0.68
A3U U54C A75G	1.01
A3U U54C A77U	1.07
A3U U54C U74C U80C C81U	1.25
A3U U60A U69A	0.41
A3U U72C A77G	1.07
C4A A5G C12G A18U C29A	0.23
C4A A13U G30C U31A A64U	0.12
C4A A15G A77G	0.97
C4A A15U A28G U74A U80C	0.96
C4A A15U A45U	0.38
C4A A15U G33A C39A A47G	0.09
C4A A18U U69C	0.53
C4A A20G U25A A57G	0.22
C4A A20G U43A A56G A65C	0.13
C4A A20U A65C	0.12
C4A A20U C71G U78C	0.1
C4A A20U U31A A35G	0.27
C4A A21G G22A G63A U67C	0.07
C4A A21G U26C U51C U54C	0.35
C4A A28G A35G	1.27
C4A A28U C34U U78C	0.15
C4A A35G A45G U66C A75U U80C	1.01
C4A A35G C40A U54C A65U	0.22

Variant	self-cleavage
C4A A35G U41C U78C	1.26
C4A A35G U54C A56C U66A	1.04
C4A A35G U74A	1.2
C4A C11U U25C U41C U67C	0.06
C4A C29G U78C	0.46
C4A G7A U51C G53U U54C	0.07
C4A G8A A18G U31A U58G C71U	0.06
C4A G10A U31A U41C A65G	0.08
C4A G10C C29G U54C A56U	0.08
C4A G36A A45U U48C A64U	0.09
C4A U25A G52A	0.54
C4A U25C U43A G53U	0.35
C4A U26G U78C	0.46
C4A U41A U69A	0.14
C4A U41C A45G A56G U69A C71A	0.19
C4A U41G U72A U78C	0.34
C4A U48C U78C	0.7
C4G A5G C12U U25C C37U U41C A45U	0.09
C4G A5G U60C	0.43
C4G A5U A20U U51G A57G U78C	0.12
C4G A5U G30C	0.09
C4G A13G A45C	0.49
C4G A13U C40U U43C U60C	0.12
C4G A15U U31C	0.19

Variant	self-cleavage
C4G A18C A35C U67C	0.12
C4G A18G U26A A28U U60A	0.3
C4G A18U A28U U74C	0.66
C4G A20G G24A C50U U54G A64G	0.06
C4G A21G G46A U69A	0.14
C4G A21G U48C U72G	0.23
C4G A21G U80C	0.84
C4G A21U U25C U72G	0.18
C4G A28C U41A	0.37
C4G A35C U48C U60C	0.13
C4G A35U U69A	0.42
C4G A47U U60C A64G U66C	0.21
C4G C11U U49A A77U	0.36
C4G C12A A15U	0.97
C4G C14A A18G U41A A45G U54C	0.07
C4G C23G A28U U78C	0.07
C4G G9U A18U A35G U43C A64G	0.03
C4G G24A A35G U54A C62U	0.07
C4G U26C A45G U60A	0.15
C4G U26C C40G U43A U60C	0.29
C4G U31C A45U	0.28
C4G U31C G73A U76A	1.24
C4G U43C A77U	1.06
